Assay results: the supplement of paper PMC4967469
By IC50 is meant the dose at which the fit gives 50% viability; where the fit passes the top or lowest dose, that dose stands as a limit. AUC is the area under the same curve over the 256-fold range up to the top dose, as a fraction; values near 1 show little effect. The top dose, if marked as inferred, is not printed in the source and was worked back from the curve model.

How the values were obtained:
Experiment in all cases: Viability of human cancer cell lines after 72 h of drug (GDSC screen)
FH535 = compound: Cc1cc([N+](=O)[O-])ccc1NS(=O)(=O)c1cc(Cl)ccc1Cl [FH535]; details: top dose 32 µM; top dose inferred
Method: (§1)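 Human cancer cell lines in 384-well plates, medium with 10% serum, drug for 72 h over a 256-fold dose range (nine 2-fold or five 4-fold steps up to the top dose). Adherent lines were fixed and stained with the nucleic acid dye Syto60, suspension lines read with resazurin; signal relative to control wells, capped at 0 and 100%. One two-parameter sigmoid per drug and line, fitted in a mixed model over all curves with the slope shared within a line.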

AT-7519 = compound: O=C(NC1CCNCC1)c1n[nH]cc1NC(=O)c1c(Cl)cccc1Cl [AT-7519]; details: top dose 10.24 µM; top dose inferred
Method: as §1

XMD14-99 = compound: COc1cc(N2CCN(C)CC2)ccc1Nc1nc(N)c(C(=O)c2c(Cl)cccc2Cl)s1 [XMD14-99]; details: top dose 10.24 µM; top dose inferred
Method: as §1

Row | Cell Line | AUC (FH535) | IC50 (FH535) [µM] | AUC (AT-7519) | IC50 (AT-7519) [µM] | AUC (XMD14-99) | IC50 (XMD14-99) [µM]
1 | 451Lu (melanoma, adherent) | 0.567 | 3.02 | 0.879 | 9.72 | 0.989 | > 10.2
2 | 639-V (bladder, adherent) | 0.485 | 1.83 | 0.989 | > 10.2 | 0.99 | > 10.2
3 | 647-V (bladder, adherent) | 0.568 | 3.06 | 0.734 | 2.99 | 0.987 | > 10.2
4 | 769-P (kidney, adherent) | 0.637 | 4.95 | 0.674 | 2.06 | 0.923 | > 10.2
5 | 786-0 (kidney, adherent) | 0.591 | 3.48 | 0.567 | 0.958 | 0.914 | > 10.2
6 | 5637 (bladder, adherent) | 0.71 | 7.34 | 0.632 | 1.42 | 0.982 | > 10.2
7 | 8305C (thyroid, adherent) | 0.582 | 3.59 | 0.838 | 10.2 | 0.973 | > 10.2
8 | 8505C (thyroid, adherent) | 0.57 | 3.15 | 0.578 | 1.06 | 0.983 | > 10.2
9 | 23132-87 (stomach, adherent) | 0.594 | 3.66 | 0.687 | 2.18 | 0.984 | > 10.2
10 | A204 (rhabdomyosarcoma, adherent) | 0.671 | 6.93 | 0.634 | 1.68 | 0.978 | > 10.2
11 | A375 (melanoma, adherent) | 0.529 | 2.36 | 0.848 | 5.63 | 0.991 | > 10.2
12 | A427 (non-small cell lung carcinoma, adherent) | 0.184 | 0.222 | 0.815 | 5.71 | 0.985 | > 10.2
13 | A431 (skin, adherent) | 0.564 | 2.97 | 0.36 | 0.268 | 0.987 | > 10.2
14 | A673 (rhabdomyosarcoma, adherent) | 0.545 | 2.62 | 0.582 | 1.05 | 0.988 | > 10.2
15 | ABC-1 (lung adenocarcinoma, adherent) | 0.584 | 3.56 | 0.586 | 1.16 | 0.983 | > 10.2
16 | ACHN (kidney, adherent) | 0.647 | 5.42 | 0.86 | > 10.2 | 0.976 | > 10.2
17 | AGS (stomach, adherent) | 0.685 | 6.19 | 0.602 | 1.18 | 0.988 | > 10.2
18 | AN3-CA (endometrium, adherent) | 0.444 | 1.39 | 0.777 | 4.5 | 0.978 | > 10.2
19 | ASH-3 (thyroid, adherent) | 0.579 | 3.29 | 0.777 | 4.1 | 0.985 | > 10.2
20 | AU565 (breast, adherent) | 0.411 | 1.11 | 0.543 | 0.852 | 0.983 | > 10.2

Row | Cell Line | AUC (FH535) | IC50 (FH535) [µM] | AUC (AT-7519) | IC50 (AT-7519) [µM] | AUC (XMD14-99) | IC50 (XMD14-99) [µM]
21 | AsPC-1 (pancreas, adherent) | 0.778 | 24.4 | 0.931 | > 10.2 | 0.97 | > 10.2
22 | BCPAP (thyroid, adherent) | 0.518 | 2.23 | 0.601 | 1.18 | 0.974 | > 10.2
23 | BEN (non-small cell lung carcinoma, adherent) | 0.509 | 2.12 | 0.914 | > 10.2 | 0.982 | > 10.2
24 | BFTC-905 (bladder, adherent) | 0.595 | 3.5 | 0.439 | 0.448 | 0.978 | > 10.2
25 | BFTC-909 (kidney, adherent) | 0.54 | 2.57 | 0.982 | > 10.2 | 0.985 | > 10.2
26 | BHT-101 (thyroid, adherent) | 0.676 | 6.29 | 0.931 | > 10.2 | 0.974 | > 10.2
27 | BHY (head and neck, adherent) | 0.614 | 4.13 | 0.487 | 0.59 | 0.987 | > 10.2
28 | BICR10 (head and neck, adherent) | 0.602 | 3.97 | 0.957 | > 10.2 | 0.985 | > 10.2
29 | BICR22 (head and neck, adherent) | 0.582 | 3.46 | 0.63 | 1.55 | 0.983 | > 10.2
30 | BICR31 (head and neck, adherent) | 0.659 | 5.57 | 0.788 | 4.55 | 0.988 | > 10.2
31 | BICR78 (head and neck, adherent) | 0.853 | 31.5 | 0.865 | > 10.2 | 0.983 | > 10.2
32 | BPH-1 (prostate, adherent) | 0.792 | 16.2 | 0.257 | 0.119 | 0.936 | > 10.2
33 | BT-20 (breast, adherent) | 0.696 | 8.18 | 0.594 | 1.24 | 0.984 | > 10.2
34 | BT-483 (breast, adherent) | 0.95 | > 32 | 0.887 | > 10.2 | 0.972 | > 10.2
35 | BxPC-3 (pancreas, adherent) | 0.678 | 6.71 | 0.526 | 0.76 | 0.98 | > 10.2
36 | C3A (liver, adherent) | 0.528 | 2.4 | 0.97 | > 10.2 | 0.988 | > 10.2
37 | C32 (melanoma, adherent) | 0.146 | 0.143 | 0.949 | > 10.2 | 0.986 | > 10.2
38 | C-4-I (cervix, adherent) | 0.6 | 3.85 | 0.912 | > 10.2 | 0.98 | > 10.2
39 | C-33-A (cervix, adherent) | 0.526 | 2.36 | 0.811 | 5.44 | 0.977 | > 10.2
40 | CAKI-1 (kidney, adherent) | 0.689 | 8.9 | 0.94 | > 10.2 | 0.966 | > 10.2

Row | Cell Line | AUC (FH535) | IC50 (FH535) [µM] | AUC (AT-7519) | IC50 (AT-7519) [µM] | AUC (XMD14-99) | IC50 (XMD14-99) [µM]
41 | CAL-12T (non-small cell lung carcinoma, adherent) | 0.438 | 1.32 | 0.372 | 0.272 | 0.952 | > 10.2
42 | CAL-27 (head and neck, adherent) | 0.575 | 3.21 | 0.461 | 0.501 | 0.986 | > 10.2
43 | CAL-29 (bladder, adherent) | 0.853 | 28.2 | 0.877 | > 10.2 | 0.984 | > 10.2
44 | CAL-33 (head and neck, adherent) | 0.604 | 3.86 | 0.776 | 4.09 | 0.986 | > 10.2
45 | CAL-39 (cervix, adherent) | 0.544 | 2.64 | 0.84 | 7.41 | 0.986 | > 10.2
46 | CAL-51 (breast, adherent) | 0.587 | 3.35 | 0.968 | > 10.2 | 0.985 | > 10.2
47 | CAL-54 (kidney, adherent) | 0.55 | 2.8 | 0.95 | > 10.2 | 0.984 | > 10.2
48 | CAL-62 (thyroid, adherent) | 0.533 | 2.45 | 0.716 | 2.52 | 0.988 | > 10.2
49 | CAL-72 (osteosarcoma, adherent) | 0.71 | 8.84 | 0.984 | > 10.2 | 0.984 | > 10.2
50 | CAL-78 (chondrosarcoma, adherent) | 0.874 | > 32 | 0.986 | > 10.2 | 0.986 | > 10.2
51 | CAL-85-1 (breast, adherent) | 0.607 | 4.28 | 0.719 | 3.24 | 0.962 | > 10.2
52 | CAL-120 (breast, adherent) | 0.684 | 7.67 | 0.942 | > 10.2 | 0.976 | > 10.2
53 | CAMA-1 (breast, adherent) | 0.413 | 1.09 | 0.857 | > 10.2 | 0.976 | > 10.2
54 | CAPAN-1 (pancreas, adherent) | 0.515 | 2.21 | 0.729 | 3.13 | 0.987 | > 10.2
55 | CCF-STTG1 (glioma, adherent) | 0.739 | 9.68 | 0.988 | > 10.2 | 0.987 | > 10.2
56 | CCK-81 (large intestine, adherent) | 0.758 | 10.5 | 0.854 | 7.31 | 0.99 | > 10.2
57 | CHL-1 (melanoma, adherent) | 0.451 | 1.49 | 0.882 | 9.73 | 0.984 | > 10.2
58 | CHP-212 (neuroblastoma, adherent) | 0.459 | 1.56 | 0.9 | > 10.2 | 0.96 | > 10.2
59 | CHSA0011 (chondrosarcoma, adherent) | 0.905 | > 32 | 0.624 | 1.62 | 0.971 | > 10.2
60 | CHSA0108 (chondrosarcoma, adherent) | 0.764 | 13.4 | 0.509 | 0.681 | 0.968 | > 10.2
